# Where a name gives a salt, the structure may show the parent alone. The full ranking holds about 2,800 compounds; the median of “cell viability relative to vehicle” is about 0.98, and the lowest 2% start at about 0.45. The list shows a part of the results.
# Test system: NCI-H2228 alectinib-DTP
# Assay: cell viability relative to vehicle (fraction of vehicle); NCI-H2228 is an ALK-positive lung cancer line and DTP means drug-tolerant persister; higher = less growth inhibition
# Conditions: 100 nM; treatment time 6 days
# Summary of the method: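 Each value is viability relative to vehicle-treated cells, measured as ATP with the CellTiter-Glo 3D Cell Viability Assay. Parental NCI-H2228 cells and drug-tolerant persisters (1000 nM targeted drug, 13 days) in 384-well plates received the 3114-agent TargetMol anti-cancer compound library at 100 nM, or DMSO, and were read 6 days later.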
row,Compound,cell viability
1,O=C1CSc2ccccc2N1Cc1cccc(C(F)(F)F)c1,0.951
2,C[C@H](Nc1ncnc2nc[nH]c12)c1cc2cccc(Cl)c2c(=O)n1-c1ccccc1 [Duvelisib],0.939
3,CC(NCCc1ccc(O)cc1)C(O)c1ccc(O)cc1 (stereo not drawn) [Ritodrine hydrochloride],0.904
4,Cc1c(C(=O)N2CCOc3ccc(-c4ccc(N)nc4)cc3C2)ccc(S(C)(=O)=O)c1F,0.928
5,O=C(Nc1ccc(CN2CCOCC2)cc1)c1ccc(-c2cccc(Cl)c2)o1,0.816
6,CN1CCC(=C2c3ccccc3CCn3c(C=O)cnc32)CC1 [Alcaftadine],0.988
7,Cc1cc(F)c(C(=O)Nc2cccc(-c3nncn3C(C)C)n2)cc1-n1cnc(C2CC2)c1 [Selonsertib],0.918
8,CCC(=O)O[C@]1(C(=O)SCF)[C@H](C)C[C@H]2[C@@H]3C[C@H](F)C4=CC(=O)C=C[C@]4(C)[C@@]3(F)[C@@H](O)C[C@@]21C [Fluticasone propionate],0.772
9,Cc1cn(-c2cc(NC(=O)c3ccc(C)c(Nc4nccc(-c5cnccn5)n4)c3)cc(C(F)(F)F)c2)cn1 [Radotinib],0.964
10,CC(C)[C@H](O)C(=O)N[C@@H](C)C(=O)N[C@@H]1C(=O)N(C)CCc2ccccc21 [Semagacestat],1.01
11,NCCCS(=O)(=O)O [Homotaurine],0.937
12,O=C(O)/C(Cc1ccccc1[N+](=O)[O-])=N/Nc1nc(-c2ccc(Cl)c(Cl)c2)cs1,0.872
13,COc1cc(CCc2cc(NC(=O)c3ccc(N4CC(C)NC(C)C4)cc3)n[nH]2)cc(OC)c1 (stereo not drawn),0.851
14,CC(C)n1c(=O)n(C)c2cnc3cc(F)c(-c4ccc(OCCCN5CCCCC5)nc4)cc3c21,0.883
15,Nc1ccc(C(=O)O)c(O)c1 [Aminopar],0.995
16,Nc1ccc(C(=O)O)c(O)c1 [Sodium 4-aminosalicylate dihydrate],1.2
17,CNCc1ccc(C)c(NC(=O)c2ccc(Nc3nc(-c4ccccc4)c4ccccc4n3)cc2)c1,0.99
18,CCCCN1CCCC[C@H]1C(=O)Nc1c(C)cccc1C [Levobupivacaine],0.862
19,c1ccc(CNc2nc(N3CCOc4ccccc43)nc3c2CCCC3)cc1 [ML241 hydrochloride],1
20,CCCCC/C=C\C/C=C\C/C=C\CCCCC(=O)O [gamma-Linolenic acid],0.958
21,Clc1ccc(C(c2ccccc2Cl)C(Cl)Cl)cc1 (stereo not drawn) [Mitotan],0.957
22,O=C(O)Cn1nnc(-c2cc(N3CCC(Oc4cc(F)ccc4Br)CC3)no2)n1,0.993
23,O=C(O)c1ccccc1Nc1cccc(C(F)(F)F)c1 [Flufenamic acid],0.845
